Test results from PubChem BioAssay AID2546 (National Center for Advancing Translational Sciences (NCATS), 2010).
“And” between values parts separate entries of the source, which are not always exact repeats. Equal entries are not always repeated. Hit rate of the full screen: of about 310,000 compounds, about 11,000 (3.5%) were called active. The shares of active, inactive and inconclusive entries below differ from those in the screen. The call rests on the fitted dose curve; in most records, active means well fitted inhibition curve with a large enough effect; inconclusive means small, poorly fitted or top-dose-only effect, or effect the other way; inactive means flat fitted curve, though single readings scatter. Potencies of inconclusive entries are doubtful fits and often do not repeat.
On the % scale 0 is the no-effect control and ±100 the full control effect; potency means the concentration at half of the fitted maximal effect; tags describe the fitted curve by direction and shape.

Assay: VP16 counterscreen qHTS for inhibitors of ROR gamma transcriptional activity;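 further: Gal4-VP16 expression switched on by copper sulfate through the metallothionein promoter; nearly all actives have a fitted effect of over 50% in size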
Conditions: Drosophila S2 Gal4-VP16 UAS-luciferase, luminescence, 20 h; activity, negative = inhibition: at 53.6 µM (top of the series)
With `O=C(Nc1nc(-c2ccccc2)cs1)c1ccccc1NS(=O)(=O)c1ccc(F)cc1` the Potency was active: 5.62 µM.
For `CCOC(=O)C1=C(CSc2nc(-c3ccncc3)ccc2C#N)OC(N)=C(C#N)C1c1ccc(OC)cc1` (centres undefined), the Potency was inconclusive: 35.5 µM [activator, single point].
In the case of `O=C(/C=C/c1ccc(O)cc1)c1ccc(O)cc1O`, the Potency is reported as inconclusive: 22.4 µM [inhibitor, single point] and inconclusive: 11.2 µM [inhibitor, partial curve] and inconclusive: 10 µM [inhibitor, partial curve].
In the case of `CCOC(=O)C1=C(CSc2nccn2C)NC(=O)NC1c1ccc(OC)cc1` (centres undefined), the Potency is reported as inconclusive: 0.1 µM [inhibitor, full curve, poor fit].
With `COc1ccc(C(=O)NCC(O)COc2ccc(C(C)(C)C)cc2)cc1[N+](=O)[O-]` (centres undefined) the Potency was inconclusive: 1.26 µM [inhibitor, single point].
In the case of `Cc1ccccc1Nc1nc(N)nc(CSCc2c(C)noc2C)n1`, the Potency is reported as inconclusive: 11.2 µM [inhibitor, partial curve].
In the case of `CCOC(=O)C(=Nc1ccccc1)NO`, the Potency is reported as “inactive”.
For `CCOc1ccc(Nc2nc3ccccc3c(=O)s2)cc1`, the Potency was inconclusive: 11.2 µM [inhibitor, partial curve, poor fit].
With `COc1ccc(N(C(=O)c2cccnc2)S(=O)(=O)c2ccc3c4c(cccc24)C(=O)N3C)cc1` the Potency was inconclusive: 22.4 µM [inhibitor, single point].
In the case of `COc1ccc(CCNC(=O)c2csc3c2CCCC3)cc1`, the Potency is reported as “inactive”.
For `Cc1ccnc2nc(C(=O)Nc3nc4ccccc4s3)nn12`, the Potency was inconclusive: 2.24 µM [inhibitor, partial curve].
For `O=C(COc1cccc(Cl)c1)Nc1ccc2c(c1)CCC2`, the Potency was inconclusive: 35.5 µM [inhibitor, single point].
For `Cc1ccc(/C=N/NC(=O)c2cccs2)o1`, the Potency was inconclusive: 35.5 µM [inhibitor, single point].
In the case of `CN(C(=O)COc1cc(=O)n(C)c2ccccc12)c1ccc(Br)cc1`, the Potency is reported as “inactive”.
For `CCOc1ccc(NC(=S)N2CCC(c3ccc(C)cc3)C2)cc1` (centres undefined), the Potency was inconclusive: 35.5 µM [inhibitor, single point].
With `Cc1ccc(-c2ccccc2NC(=O)C2C3C=CC(C3)C2C(=O)O)o1` (centres undefined) the Potency was active: 4.47 µM.
With `Cc1ccccc1C(=O)O/N=C(\N)c1ccncc1` the Potency was inconclusive: 20 µM [inhibitor, single point].
With `CCOC(=O)c1cnc2ccc(C)cc2c1Sc1ccc(F)cc1` the Potency was active: 28.2 µM.
With `CC1C(c2ccccc2)N(C)C(c2ccccc2)CC1(O)c1ccc(F)cc1` (centres undefined) the Potency was inconclusive: 35.5 µM [inhibitor, single point].
For `COc1ccc(-c2ccccc2[C@H]2[C@@H]3C=CC[C@@H](C)[C@@H]3C(=O)N2Cc2ccccc2)cc1`, the Potency was inconclusive: 39.8 µM [inhibitor, single point].
With `O=C(/C(=N/N=C/c1ccc(O)c(O)c1)c1ccccc1)c1ccccc1` the Potency was inconclusive: 25.1 µM [inhibitor, single point].
For `Cn1c2c(c(=O)n(C)c1=O)C(C(F)(F)F)(C(F)(F)F)N=C(c1ccc(Cl)cc1)N2`, the Potency was active: 3.16 µM.
In the case of `CC(NC(=O)/C(C#N)=C/c1cn[nH]c1-c1ccccc1)c1ccccc1` (centres undefined), the Potency is reported as inconclusive: 22.4 µM [inhibitor, single point].
In the case of `CCN(CC)C(=O)CSC1=N/C(=C/c2ccco2)C(=O)N1c1ccc(OC)c(Cl)c1`, the Potency is reported as inconclusive: 14.1 µM [inhibitor, single point].
With `COc1ccc2c(c1)C(C)CC(C)(C)N2C(=O)NC1CCCCC1` (centres undefined) the Potency was inconclusive: 15.8 µM [activator, partial curve].
With `COc1cccc(/C=C(/C(=O)OCC(=O)NC2CCCC(C)C2C)c2ccccc2)c1` (centres undefined) the Potency was inconclusive: 14.1 µM [inhibitor, partial curve].
In the case of `CCCCCCC(=O)N(O)C1CC(=O)N(c2ccc(F)cc2)C1=O` (centres undefined), the Potency is reported as inconclusive: 35.5 µM [inhibitor, single point].
In the case of `COc1ccc2nc(-c3cccc(N)c3)[nH]c2c1`, the Potency is reported as active: 12.6 µM.
With `CNC(=O)C1C(=S)NC(N)=C(C#N)C1c1ccccc1` (centres undefined) the Potency was inconclusive: 35.5 µM [inhibitor, single point].
With `COC(=O)CSC1=C(C#N)C(c2ccc(F)cc2)CC(=O)N1` (centres undefined) the Potency was “inactive”.
In the case of `Nc1cc(S(=O)(=O)Nc2cc(Cl)ccc2Cl)ccc1N1CCOCC1`, the Potency is reported as inconclusive: 35.5 µM [inhibitor, single point].
For `Cc1cccc(NC(=O)c2ccccc2OCC(=O)c2ccc(F)cc2)c1`, the Potency was inconclusive: 11.2 µM [inhibitor, partial curve].
With `O=C(CNC(=O)c1ccccc1F)NCCN1C(=O)S/C(=C\c2ccccc2Cl)C1=O` the Potency was inconclusive: 35.5 µM [activator, single point].
In the case of `COc1ccc(C2(CNC(=O)/C=C\c3ccco3)CCCC2)cc1OC`, the Potency is reported as inconclusive: 12.6 µM [inhibitor, partial curve].
With `CCn1c2ccccc2c2cc(N=C3SC(CC(=O)Nc4ccccc4OC)C(=O)N3CCOC)ccc21` (centres undefined) the Potency was inconclusive: 35.5 µM [inhibitor, single point].
With `COc1ccc(NC(=O)N2CCN(c3ccc([N+](=O)[O-])cc3)CC2)cc1OC` the Potency was “inactive”.
In the case of `Cc1nc(Nc2ccc(Cl)cc2Cl)sc1C(=O)Nc1ccccc1`, the Potency is reported as inconclusive: 35.5 µM [inhibitor, single point].
With `CSc1ccccc1C(=O)NCCSc1ccc(C)cc1` the Potency was “inactive”.
For `CC1C/C(=N\NC(=S)NCc2ccccc2)CC(C)(C)C1` (centres undefined), the Potency was active: 2.82 µM.
For `COc1cc(-c2csc(NC3CCCCC3)n2)cc(OC)c1OC`, the Potency was inconclusive: 35.5 µM [inhibitor, single point].
In the case of `Cc1nc2ccccn2c1C(=O)N/N=C/c1ccccc1[N+](=O)[O-]`, the Potency is reported as “inactive”.
With `CCCC(=O)Nc1nc(C)c(-c2csc(Nc3ccc(Cl)cc3)n2)s1` the Potency was inconclusive: 25.1 µM [inhibitor, single point].
With `CCCc1c(C)[nH]c2ccccc2c1=O` the Potency was inconclusive: 31.6 µM [inhibitor, single point].
For `Cc1cccc(-c2noc(CCCC(=O)Nc3cccnc3)n2)c1`, the Potency was inconclusive: 7.08 µM [inhibitor, partial curve].
In the case of `CC1=C(C(=O)Nc2cc(-c3cccc(F)c3)[nH]n2)C2(CCCCC2)OC1=O`, the Potency is reported as inconclusive: 14.1 µM [inhibitor, single point].
In the case of `O=C(Cc1ccccc1)Nc1nnc(-c2ccco2)o1`, the Potency is reported as active: 10 µM.
With `Cc1ccc(S(=O)(=O)NN2C(=O)c3ccccc3NC2c2ccccc2O)cc1` (centres undefined) the Potency was “inactive”.
With `Cc1cccc(C)c1NC(=S)N1CCC(c2ccccc2)C1` (centres undefined) the Potency was active: 35.5 µM.
In the case of `O=C(Nc1c(Cl)ccc2nsnc12)c1ccc([N+](=O)[O-])o1`, the Potency is reported as inconclusive: 31.6 µM [inhibitor, single point].
In the case of `CCCN1C(=O)/C(=C/c2ccncc2)SC1=S`, the Potency is reported as inconclusive: 12.6 µM [inhibitor, partial curve].
For `CN(c1ccccc1)S(=O)(=O)c1cc(C(=O)OCC(N)=O)ccc1Cl`, the Potency was “inactive”.
In the case of `CCC(=O)N(C)CCc1cc2c(c(OC)c1/C=N/NC(=O)c1ccc(Br)cc1)OCO2`, the Potency is reported as inconclusive: 5.62 µM [activator, single point].
For `Cc1c(C(=O)N(Cc2nccn2C)C(C)C)oc2c(F)cccc12`, the Potency was “inactive”.
With `COc1ccc(NC(C)C(=O)N/N=C/c2c(O)ccc3ccccc23)cc1` (centres undefined) the Potency was active: 3.55 µM.
With `C/C(=N\NC(=S)Nc1cccc(C)c1)c1ccccc1` the Potency was active: 7.94 µM.
With `COc1ccc(C2CCCN2C(=S)Nc2ccccc2C)cc1OC` (centres undefined) the Potency was inconclusive: 17.8 µM [inhibitor, single point].
For `CCC[C@H](CN[C@@H](CNC)[C@H](C)CC)NCCc1cc(C(F)(F)F)cc(C(F)(F)F)c1`, the Potency was inconclusive: 35.5 µM [inhibitor, single point].
For `O=c1ccc2[n+]([O-])c3ccc(O)cc3oc-2c1`, the Potency was inconclusive: 35.5 µM [inhibitor, single point].
For `COc1ccc(S(=O)(=O)N2CCN(c3c(C)cccc3C)CC2)cc1OC`, the Potency was inconclusive: 31.6 µM [inhibitor, single point].
With `CC1(CC(=O)N/N=C/c2cc([N+](=O)[O-])c(O)cc2O)OCCO1` the Potency was inconclusive: 22.4 µM [inhibitor, single point].
For `CC(C)N1CCC2(CC1)Oc1ccc(Br)cc1C1CC(c3cccnc3)=NN12` (centres undefined), the Potency was inconclusive: 31.6 µM [inhibitor, single point].
With `CCC(C)N=CC1=C(O)C(C(=O)OC)C(C)(C)CC1=O` (centres undefined) the Potency was inconclusive: 0.126 µM [inhibitor, full curve, poor fit].
In the case of `COc1ccc(-n2cc(-c3ccccc3)c3c(NN4CCOCC4)ncnc32)cc1`, the Potency is reported as inconclusive: 35.5 µM [inhibitor, single point].
For `CCOc1ccc(OCc2ccc(C(=O)O)o2)cc1`, the activity, negative = inhibition was inactive: 14.8% [at 0.365 µM].
With `CCNc1nc(NC(C)C)nc(N(C#N)CCOc2ccc(Cl)cc2Cl)n1` the Potency was inconclusive: 35.5 µM [inhibitor, single point].
In the case of `COc1ccc(OC)c(NC(=O)/C=C/c2ccccc2[N+](=O)[O-])c1`, the Potency is reported as “inactive”.
For `CC(NC(=O)c1ccc2ccccc2n1)c1ccccc1` (centres undefined), the Potency was “inactive”.
In the case of `CCOc1ccc(NC(=S)c2ccc3ccccc3n2)cc1`, the Potency is reported as inconclusive: 17.8 µM [inhibitor, single point].
In the case of `O=[N+]([O-])c1ccc(N/N=C\c2cccn2-c2ccccc2)nc1`, the Potency is reported as inconclusive: 35.5 µM [inhibitor, single point].
